The supplement of paper PMC8948288
Shown are siRNA guide strands that differ only in the seed, positions 2 to 7.

Key:
GL261 = experiment: cell viability relative to siNT1 (ATP content); H4 human neuroglioma and GL261 mouse glioma; higher = less toxic; settings: siRNA concentration 25 nM; 96 h; mouse
H4 = experiment: as above; settings: siRNA concentration 10 nM; 96 h; human
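Further: cells reverse transfected with siRNA duplexes via lipid reagent, ATP read by luminescence, triplicate wells, values scaled to mean viability with non-targeting control siNT1.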

Sequence | cell viability (GL261) | cell viability (H4)
UUUCAGCACAUGUAAACCA | 11.6% | 69.9%
UUUCAGGACAUGUAAACCA | 18% | 72.8%
UUUCAGUACAUGUAAACCA | 20.1% | 77.9%
UUUCAUAACAUGUAAACCA | 31.3% | 82.6%
UUUCAUCACAUGUAAACCA | 42.2% | 70.7%
UUUCAUGACAUGUAAACCA | 47.2% | 87.6%
UUUCAUUACAUGUAAACCA | 32.8% | 87.1%
UUUCCAAACAUGUAAACCA | 55.9% | 79.7%
UUUCCACACAUGUAAACCA | 23.9% | 73.3%
UUUCCAGACAUGUAAACCA | 53.3% | 70.3%
UUUCCAUACAUGUAAACCA | 44.8% | 86.3%
UUUCCCAACAUGUAAACCA | 55% | 86.5%
UUUCCCCACAUGUAAACCA | 21.4% | 46.2%
UUUCCCGACAUGUAAACCA | 56.1% | 84.4%
UUUCCCUACAUGUAAACCA | 52.6% | 75.3%
UUUCCGAACAUGUAAACCA | 61.2% | 100%
UUUCCGCACAUGUAAACCA | 17.6% | 49.6%
UUUCCGGACAUGUAAACCA | 36% | 74.7%
UUUCCGUACAUGUAAACCA | 17.4% | 87.8%
UUUCCUAACAUGUAAACCA | 60.1% | 95.4%
UUUCCUCACAUGUAAACCA | 16.2% | 26.2%
UUUCCUGACAUGUAAACCA | 31.4% | 103%
UUUCCUUACAUGUAAACCA | 33.6% | 71.4%

Sequence | cell viability (GL261) | cell viability (H4)
UUUCGAAACAUGUAAACCA | 51.3% | 99.3%
UUUCGACACAUGUAAACCA | 50.2% | 82.3%
UUUCGAGACAUGUAAACCA | 47% | 96.1%
UUUCGAUACAUGUAAACCA | 55.1% | 98.5%
UUUCGCAACAUGUAAACCA | 44.2% | 95.5%
UUUCGCCACAUGUAAACCA | 38.4% | 89.6%
UUUCGCGACAUGUAAACCA | 56.7% | 95.1%
UUUCGCUACAUGUAAACCA | 14.9% | 93.4%
UUUCGGAACAUGUAAACCA | 46.2% | 89.8%
UUUCGGCACAUGUAAACCA | 18.4% | 43.7%
UUUCGGGACAUGUAAACCA | 44% | 90.3%
UUUCGGUACAUGUAAACCA | 41.9% | 75%
UUUCGUAACAUGUAAACCA | 42.5% | 95.1%
UUUCGUCACAUGUAAACCA | 46% | 89.4%
UUUCGUGACAUGUAAACCA | 54.4% | 97.3%
UUUCGUUACAUGUAAACCA | 55.7% | 90.8%
UUUCUAAACAUGUAAACCA | 58.2% | 90.2%
UUUCUACACAUGUAAACCA | 22.2% | 77.4%
UUUCUAGACAUGUAAACCA | 51.9% | 108%
UUUCUAUACAUGUAAACCA | 54.5% | 79.2%
UUUCUCAACAUGUAAACCA | 38.9% | 87.8%
UUUCUCCACAUGUAAACCA | 11.9% | 25.9%
UUUCUCGACAUGUAAACCA | 25.2% | 82.6%

Sequence | cell viability (GL261) | cell viability (H4)
UUUCUCUACAUGUAAACCA | 15.5% | 57.1%
UUUCUGAACAUGUAAACCA | 39.3% | 87.6%
UUUCUGCACAUGUAAACCA | 6.94% | 27%
UUUCUGGACAUGUAAACCA | 9.72% | 36.6%
UUUCUGUACAUGUAAACCA | 8.83% | 64.9%
UUUCUUAACAUGUAAACCA | 43.7% | 95%
UUUCUUCACAUGUAAACCA | 17.6% | 60.2%
UUUCUUGACAUGUAAACCA | 43.1% | 87.1%
UUUCUUUACAUGUAAACCA | 28.8% | 71%
UUUGAAAACAUGUAAACCA | 53.1% | 103%
UUUGAACACAUGUAAACCA | 53.2% | 93.2%
UUUGAAGACAUGUAAACCA | 53.9% | 102%
UUUGAAUACAUGUAAACCA | 41.7% | 96.4%
UUUGACAACAUGUAAACCA | 42.6% | 86.7%
UUUGACCACAUGUAAACCA | 27.6% | 47.6%
UUUGACGACAUGUAAACCA | 52.6% | 92%
UUUGACUACAUGUAAACCA | 51.6% | 81.4%
UUUGAGAACAUGUAAACCA | 52.1% | 97.8%
UUUGAGCACAUGUAAACCA | 32.7% | 73.5%
UUUGAGGACAUGUAAACCA | 50.4% | 59.6%
UUUGAGUACAUGUAAACCA | 42.3% | 88.1%
UUUGAUAACAUGUAAACCA | 59.6% | 98.5%
UUUGAUCACAUGUAAACCA | 54.7% | 76.2%

Sequence | cell viability (GL261) | cell viability (H4)
UUUGAUGACAUGUAAACCA | 43.8% | 95.9%
UUUGAUUACAUGUAAACCA | 43.5% | 75.4%
UUUGCAAACAUGUAAACCA | 49.1% | 99.3%
UUUGCACACAUGUAAACCA | 37.8% | 69.2%
UUUGCAGACAUGUAAACCA | 57.3% | 88.8%
UUUGCAUACAUGUAAACCA | 34.7% | 73.8%
UUUGCCAACAUGUAAACCA | 56% | 62.7%
UUUGCCCACAUGUAAACCA | 42% | 53.1%
UUUGCCGACAUGUAAACCA | 39.1% | 77.8%
UUUGCCUACAUGUAAACCA | 12.9% | 57%
UUUGCGAACAUGUAAACCA | 61.2% | 96.6%
UUUGCGCACAUGUAAACCA | 37.5% | 85.5%
UUUGCGGACAUGUAAACCA | 48.7% | 83%
UUUGCGUACAUGUAAACCA | 45.6% | 94.1%
UUUGCUAACAUGUAAACCA | 56.3% | 111%
UUUGCUCACAUGUAAACCA | 30.8% | 91.6%
UUUGCUGACAUGUAAACCA | 40.9% | 85%
UUUGCUUACAUGUAAACCA | 64.9% | 102%
UUUGGAAACAUGUAAACCA | 64.9% | 88.2%
UUUGGACACAUGUAAACCA | 53.2% | 64.2%
UUUGGAGACAUGUAAACCA | 63.9% | 77.6%
